Measured values from the supplement of paper PMC4604168 (melanoma cell lines).
The list shows a part of the results. Repeats are few or missing, and single values can be far off.

What follows are compounds tested on WM3526 (assay: cell count relative to DMSO control; melanoma cells; higher = more viable cells). Details: library dose: low library concentration; 72 h.
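Further: cell number obtained by counting DAPI-stained nuclei in high-throughput microscope images with image analysis software, screen run in 1,536-well plates.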

Row | Structure (SMILES) | cell count [%]
1 | N#CC[C@H](C1CCCC1)n1cc(-c2ncnc3[nH]ccc23)cn1 [ruxolitinib] + COc1cc([C@@H]2c3cc4c(cc3[C@@H](O[C@@H]3O[C@@H]5CO[C@@H](C)O[C@H]5[C@H](O)[C@H]3O)[C@H]3COC(=O)[C@H]23)OCO4)cc(OC)c1O [etoposide] (first compound 1 µM, partner dose 0.02 µM) | 120
2 | CC[C@]1(O)C[C@H]2CN(CCc3c([nH]c4ccccc34)[C@@](C(=O)OC)(c3cc4c(cc3OC)N(C=O)[C@H]3[C@@](O)(C(=O)OC)[C@H](OC(C)=O)[C@]5(CC)C=CCN6CC[C@]43[C@@H]65)C2)C1 [vincristine] + Cn1sc(=O)n(Cc2ccccc2)c1=O [TDZD-8] (first compound 0.0001 µM, partner dose 0.4 µM) | 103
3 | N#CC[C@H](C1CCCC1)n1cc(-c2ncnc3[nH]ccc23)cn1 [ruxolitinib] + Oc1cc(-c2nc(-c3ccccc3)[nH]c2-c2ccncc2)ccc1Cl [L779450] (first compound 1 µM, partner dose 0.2 µM) | 92.5
4 | CC[C@]1(O)C[C@H]2CN(CCc3c([nH]c4ccccc34)[C@@](C(=O)OC)(c3cc4c(cc3OC)N(C=O)[C@H]3[C@@](O)(C(=O)OC)[C@H](OC(C)=O)[C@]5(CC)C=CCN6CC[C@]43[C@@H]65)C2)C1 [vincristine] + C[C@@H](Oc1cc(-c2cnn(C3CCNCC3)c2)cnc1N)c1c(Cl)ccc(F)c1Cl [Crizotinib] (first compound 0.0001 µM, partner dose 0.2 µM) | 67.4
5 | CC[C@]1(O)C[C@H]2CN(CCc3c([nH]c4ccccc34)[C@@](C(=O)OC)(c3cc4c(cc3OC)N(C=O)[C@H]3[C@@](O)(C(=O)OC)[C@H](OC(C)=O)[C@]5(CC)C=CCN6CC[C@]43[C@@H]65)C2)C1 [vincristine] + CCN(CC)CCNC(=O)c1c(C)[nH]c(/C=C2\C(=O)Nc3ccc(F)cc32)c1C [sunitinib] (first compound 0.0001 µM, partner dose 0.4 µM) | 89.5
6 | Cc1cc(Nc2cc(N3CCN(C)CC3)nc(Sc3ccc(NC(=O)C4CC4)cc3)n2)n[nH]1 [Tozasertib] + C=CCn1c(=O)c2cnc(Nc3ccc(N4CCN(C)CC4)cc3)nc2n1-c1cccc(C(C)(C)O)n1 [MK1775] (first compound 0.006 µM, partner dose 0.02 µM) | 112
7 | CC[C@]1(O)C[C@H]2CN(CCc3c([nH]c4ccccc34)[C@@](C(=O)OC)(c3cc4c(cc3OC)N(C=O)[C@H]3[C@@](O)(C(=O)OC)[C@H](OC(C)=O)[C@]5(CC)C=CCN6CC[C@]43[C@@H]65)C2)C1 [vincristine] + CCN(CC)CCCCNc1ncc2cc(-c3cc(OC)cc(OC)c3)c(NC(=O)NC(C)(C)C)nc2n1 [PD173074] (first compound 0.0001 µM, partner dose 0.1 µM) | 73.3
8 | N#CC[C@H](C1CCCC1)n1cc(-c2ncnc3[nH]ccc23)cn1 [ruxolitinib] + CCN(CC)CCNC(=O)c1c(C)[nH]c(/C=C2\C(=O)Nc3ccc(F)cc32)c1C [sunitinib] (first compound 1 µM, partner dose 0.4 µM) | 104
9 | Cc1cc(Nc2cc(N3CCN(C)CC3)nc(Sc3ccc(NC(=O)C4CC4)cc3)n2)n[nH]1 [Tozasertib] + Cn1sc(=O)n(Cc2ccccc2)c1=O [TDZD-8] (first compound 0.006 µM, partner dose 0.4 µM) | 107
10 | N#CC[C@H](C1CCCC1)n1cc(-c2ncnc3[nH]ccc23)cn1 [ruxolitinib] + CC[C@]1(O)C[C@H]2CN(CCc3c([nH]c4ccccc34)[C@@](C(=O)OC)(c3cc4c(cc3OC)N(C=O)[C@H]3[C@@](O)(C(=O)OC)[C@H](OC(C)=O)[C@]5(CC)C=CCN6CC[C@]43[C@@H]65)C2)C1 [vincristine] (first compound 1 µM, partner dose 0.0001 µM) | 90.5
11 | CC[C@]1(O)C[C@H]2CN(CCc3c([nH]c4ccccc34)[C@@](C(=O)OC)(c3cc4c(cc3OC)N(C=O)[C@H]3[C@@](O)(C(=O)OC)[C@H](OC(C)=O)[C@]5(CC)C=CCN6CC[C@]43[C@@H]65)C2)C1 [vincristine] + OCc1c[nH]c2ccccc12 [Indole-3-carbinol] (first compound 0.0001 µM, partner dose 0.8 µM) | 74.4
12 | Cc1cc(Nc2cc(N3CCN(C)CC3)nc(Sc3ccc(NC(=O)C4CC4)cc3)n2)n[nH]1 [Tozasertib] + Cc1nc(Nc2ncc(C(=O)Nc3c(C)cccc3Cl)s2)cc(N2CCN(CCO)CC2)n1 [dasatanib] (first compound 0.006 µM, partner dose 0.004 µM) | 100
13 | N#CC[C@H](C1CCCC1)n1cc(-c2ncnc3[nH]ccc23)cn1 [ruxolitinib] + O=C(O)[C@@H]1[O][Sb](=[O])([O][Sb]2(=[O])[O][C@H]([C@H](O)CO)[C@H](O)[C@H](C(=O)O)[O]2)[O][C@H]([C@H](O)CO)[C@@H]1O [stibogluconate] (first compound 1 µM, partner dose 2 µM) | 108
14 | CC[C@]1(O)C[C@H]2CN(CCc3c([nH]c4ccccc34)[C@@](C(=O)OC)(c3cc4c(cc3OC)N(C=O)[C@H]3[C@@](O)(C(=O)OC)[C@H](OC(C)=O)[C@]5(CC)C=CCN6CC[C@]43[C@@H]65)C2)C1 [vincristine] + O=C(/C=C/c1cccnc1)NCCCCC1CCN(C(=O)c2ccccc2)CC1 [FK866] (first compound 0.0001 µM, partner dose 0.01 µM) | 78.9
15 | N#CC[C@H](C1CCCC1)n1cc(-c2ncnc3[nH]ccc23)cn1 [ruxolitinib] + COc1ccc(-c2ccc3c(N4CCOCC4)nc(N4C[C@@H](C)O[C@@H](C)C4)nc3n2)cc1CO [KU0063794] (first compound 1 µM, partner dose 0.02 µM) | 103
16 | CC[C@]1(O)C[C@H]2CN(CCc3c([nH]c4ccccc34)[C@@](C(=O)OC)(c3cc4c(cc3OC)N(C=O)[C@H]3[C@@](O)(C(=O)OC)[C@H](OC(C)=O)[C@]5(CC)C=CCN6CC[C@]43[C@@H]65)C2)C1 [vincristine] + Nc1ccn([C@@H]2O[C@H](CO)[C@@H](O)C2(F)F)c(=O)n1 [gemcitabine] (first compound 0.0001 µM, partner dose 0.0004 µM) | 71.5
17 | Cc1cc(Nc2cc(N3CCN(C)CC3)nc(Sc3ccc(NC(=O)C4CC4)cc3)n2)n[nH]1 [Tozasertib] + O=S(=O)(c1ccccc1)N(CC(F)(F)F)c1ccc(C(O)(C(F)(F)F)C(F)(F)F)cc1 [T0901317] (first compound 0.006 µM, partner dose 1.4 µM) | 76.3
18 | CC[C@]1(O)C[C@H]2CN(CCc3c([nH]c4ccccc34)[C@@](C(=O)OC)(c3cc4c(cc3OC)N(C=O)[C@H]3[C@@](O)(C(=O)OC)[C@H](OC(C)=O)[C@]5(CC)C=CCN6CC[C@]43[C@@H]65)C2)C1 [vincristine] + COc1cc2c(Oc3ccc4[nH]c(C)cc4c3F)ncnc2cc1OCCCN1CCCC1 [cediranib] (first compound 0.0001 µM, partner dose 0.4 µM) | 85.8
19 | CC[C@]1(O)C[C@H]2CN(CCc3c([nH]c4ccccc34)[C@@](C(=O)OC)(c3cc4c(cc3OC)N(C=O)[C@H]3[C@@](O)(C(=O)OC)[C@H](OC(C)=O)[C@]5(CC)C=CCN6CC[C@]43[C@@H]65)C2)C1 [vincristine] + CCCCCCCCc1ccc(CCC(N)(CO)CO)cc1 [fingolimod] (first compound 0.0001 µM, partner dose 2 µM) | 81.4
20 | Cc1cc(Nc2cc(N3CCN(C)CC3)nc(Sc3ccc(NC(=O)C4CC4)cc3)n2)n[nH]1 [Tozasertib] + CCc1ccc(CCOc2ccc(CC3SC(=O)NC3=O)cc2)nc1 [pioglitazone] (first compound 0.006 µM, partner dose 2 µM) | 101
21 | CC[C@]1(O)C[C@H]2CN(CCc3c([nH]c4ccccc34)[C@@](C(=O)OC)(c3cc4c(cc3OC)N(C=O)[C@H]3[C@@](O)(C(=O)OC)[C@H](OC(C)=O)[C@]5(CC)C=CCN6CC[C@]43[C@@H]65)C2)C1 [vincristine] + COc1cc2ncnc(Nc3ccc(Oc4ccccc4)cc3)c2cc1OC [SrcI1] (first compound 0.0001 µM, partner dose 2 µM) | 40.7
22 | N#CC[C@H](C1CCCC1)n1cc(-c2ncnc3[nH]ccc23)cn1 [ruxolitinib] + O=C(/C=C/c1cccnc1)NCCCCC1CCN(C(=O)c2ccccc2)CC1 [FK866] (first compound 1 µM, partner dose 0.01 µM) | 124
23 | Cc1cc(Nc2cc(N3CCN(C)CC3)nc(Sc3ccc(NC(=O)C4CC4)cc3)n2)n[nH]1 [Tozasertib] + Cc1cc(Nc2cc(N3CCN(C)CC3)nc(/C=C/c3ccccc3)n2)n[nH]1 [ENMD2076] (first compound 0.006 µM, partner dose 0.04 µM) | 111
24 | Cc1cc(Nc2cc(N3CCN(C)CC3)nc(Sc3ccc(NC(=O)C4CC4)cc3)n2)n[nH]1 [Tozasertib] + O=c1[nH]nc(Sc2ncc([N+](=O)[O-])s2)n1-c1ccc2c(c1)OCCO2 [BI78D3] (first compound 0.006 µM, partner dose 0.2 µM) | 104
